Experimental data published in publication PMC4417169, “Significance of ligand interactions involving Hop2-Mnd1 and the RAD51 and DMC1 recombinases in homologous DNA repair and XX ovarian dysgenesis” (Nucleic Acids Research, 2015).
Residue numbers refer to the chain shown, from its start. No constants are given. Whether binding was seen depends on the method and setting. Some results given as binding are weak or reduced against the parent protein; the word gives no strength. For part of these data: Where a sequence is shown, tags or fusion partners need not be part of it.

Sequences of proteins named here, by UniProt entry; tags and fusion partners are left off.
UniProt P0A7G6: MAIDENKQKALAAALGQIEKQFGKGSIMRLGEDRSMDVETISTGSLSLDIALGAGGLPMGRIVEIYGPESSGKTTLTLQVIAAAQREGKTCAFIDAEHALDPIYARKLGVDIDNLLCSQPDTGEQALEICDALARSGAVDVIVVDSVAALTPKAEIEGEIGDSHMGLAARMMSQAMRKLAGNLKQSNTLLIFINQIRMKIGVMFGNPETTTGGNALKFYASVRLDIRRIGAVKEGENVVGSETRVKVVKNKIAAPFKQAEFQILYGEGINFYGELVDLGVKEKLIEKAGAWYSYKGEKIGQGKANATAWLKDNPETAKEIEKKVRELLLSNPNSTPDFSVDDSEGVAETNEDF
UniProt P25454: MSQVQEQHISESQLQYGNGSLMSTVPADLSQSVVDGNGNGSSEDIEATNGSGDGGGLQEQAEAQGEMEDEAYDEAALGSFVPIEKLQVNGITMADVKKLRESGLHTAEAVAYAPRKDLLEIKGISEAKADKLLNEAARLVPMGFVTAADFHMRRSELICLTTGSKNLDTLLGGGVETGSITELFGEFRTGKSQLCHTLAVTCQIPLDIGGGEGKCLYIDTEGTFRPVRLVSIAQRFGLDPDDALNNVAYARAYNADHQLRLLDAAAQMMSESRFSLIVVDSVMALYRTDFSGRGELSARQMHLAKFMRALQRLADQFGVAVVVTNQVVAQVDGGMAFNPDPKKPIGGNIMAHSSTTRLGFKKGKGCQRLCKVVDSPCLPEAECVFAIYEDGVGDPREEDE

Tests used:
[1] = target: T1, Hop2 (yeast two-hybrid fusion) (mouse) (UniProt O35047); assay: two-hybrid; yeast two-hybrid, pBridge (BD) and pGADT7 (AD) in strain AH109; growth on Leu-Trp-His- and Leu-Trp-His-Ade- media
T1 sequence: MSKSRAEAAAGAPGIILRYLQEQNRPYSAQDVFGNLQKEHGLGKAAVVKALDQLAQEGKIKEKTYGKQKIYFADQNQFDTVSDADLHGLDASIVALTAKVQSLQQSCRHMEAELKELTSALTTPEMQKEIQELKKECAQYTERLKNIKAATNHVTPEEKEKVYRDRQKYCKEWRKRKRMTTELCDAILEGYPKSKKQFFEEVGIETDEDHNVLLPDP

[2] = target: T2, Mnd1 (yeast two-hybrid fusion) (mouse) (UniProt Q8K396); assay: as above
T2 sequence: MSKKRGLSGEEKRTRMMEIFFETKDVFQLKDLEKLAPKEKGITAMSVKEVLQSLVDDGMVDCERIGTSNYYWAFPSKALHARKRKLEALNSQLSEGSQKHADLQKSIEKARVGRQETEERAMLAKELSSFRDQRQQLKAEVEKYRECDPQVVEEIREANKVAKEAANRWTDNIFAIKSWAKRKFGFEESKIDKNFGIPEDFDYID

[3] = target: T3, Hop2-Mnd1 co-expressed in the yeast three-hybrid system (mouse) (UniProt O35047+Q8K396); assay: two-hybrid; yeast three-hybrid: BD fusion and a third protein from pBridge, AD fusion from pGADT7, strain AH109; growth on Leu-Trp-His- and Leu-Trp-His-Ade- media
T3 sequence 1: T1 sequence
T3 sequence 2: T2 sequence

[4] = target: T4, Hop2 (G203N)-Mnd1, yeast three-hybrid (mouse) (UniProt O35047+Q8K396); assay: as above
T4 sequence 1: T1 sequence with G203N
T4 sequence 2: T2 sequence

[5] = target: T5, Hop2 (K193A/K195A/K196A)-Mnd1, yeast three-hybrid (mouse) (UniProt O35047+Q8K396); assay: as above
T5 sequence 1: T1 sequence with K193A, K195A, K196A
T5 sequence 2: T2 sequence

[6] = target: T6, Hop2 (V212Q)-Mnd1, yeast three-hybrid (mouse) (UniProt O35047+Q8K396); assay: as above
T6 sequence 1: T1 sequence with V212Q
T6 sequence 2: T2 sequence

(His)6-Hop2-Mnd1 (mouse) = target: T7, (His)6-Hop2-Mnd1 (mouse) (UniProt O35047+Q8K396); assay: pull-down; Ni2+-NTA resin captures (His)6-Hop2-Mnd1 or (His)6-Mnd1 (5 uM) incubated with RAD51 (8 uM); buffer A (25 mM Tris-HCl pH 7.5, 10% glycerol, 0.5 mM EDTA, 0.01% Igepal, 10 mM imidazole), 50-250 mM KCl, with or without 2 mM MgCl2 and 2 mM ATP (or other nucleotides); 4 C; SDS-PAGE, Coomassie; both purified
T7 sequence 1: T1 sequence
T7 sequence 2: T2 sequence

[7] = target: T8, Hop2-Mnd1 (F195A/I197Q/F201A), MBP-tagged (mouse) (UniProt O35047+Q8K396); assay: pull-down; amylose resin captures MBP-tagged Hop2-Mnd1 or mutant incubated with RAD51 or DMC1; buffer A without imidazole; 4 C; SDS-PAGE, Coomassie; both purified
T8 sequence 1: T1 sequence
T8 sequence 2: T2 sequence with F195A, I197Q, F201A

Which results are given for “RAD51 (yeast two- and three-hybrid fusion) (from UniProt Q06609 1-339)”?
binding [1]: no binding; binding [2]: binds; binding [3]: binds; binding [4]: binds; binding [5]: binds; binding [6]: binds

For “E. coli RecA (from UniProt P0A7G6 1-353)”, which binding ((His)6-Hop2-Mnd1 (mouse)) is on record?
The binding was “no binding”.

How did the binding ((His)6-Hop2-Mnd1 (mouse)) turn out when “S. cerevisiae Rad51 (from UniProt P25454 1-400)” was run?
Its binding is “no binding”.

B1: human RAD51 (natural protein, UniProt Q06609 1-339, looked up)
chain: MAMQMQLEANADTSVEEESFGPQPISRLEQCGINANDVKKLEEAGFHTVEAVAYAPKKELINIKGISEAKADKILAEAAKLVPMGFTTATEFHQRRSEIIQITTGSKELDKLLQGGIETGSITEMFGEFRTGKTQICHTLAVTCQLPIDRGGGEGKAMYIDTEGTFRPERLLAVAERYGLSGSDVLDNVAYARAFNTDHQTQLLYQASAMMVESRYALLIVDSATALYRTDYSGRGELSARQMHLARFLRMLLRLADEFGVAVVITNQVVAQVDGAAMFAADPKKPIGGNIIAHASTTRLYLRKGRGETRICKIYDSPCLPEAEAMFAINADGVGDAKD
notes: RAD51, human; source: E. coli, purified
B1 was tested. Which binding [7] did it give?
Its binding is “no binding”.
